We go through 30 compounds from PubChem BioAssay AID1745853 (National Center for Advancing Translational Sciences (NCATS), 2022).

This is one part of the list. The main result of the screen is listed elsewhere. These columns were measured beside it and carry no call.

Holding throughout (experiment): Primary Screen for Target Class Profiling of Small Molecule Inhibitors of Methyltransferases
The target of experiment [1] is Glycine N-methyltransferase (Homo sapiens) (UniProt Q14749). The note with it: purified enzyme, MTase-Glo SAH luminescence; measured here: GNMT inhibition; at 40 µM; stronger effect = lower value. The essentials:
(§1)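 Each enzyme was reacted with SAM and its substrate, with compounds tested once at 40 uM; SAH formed was read by MTase-Glo luminescence.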

Experiment [2] concerns the target Guanidinoacetate N-methyltransferase (Homo sapiens) (UniProt Q14353). The note with it: purified enzyme, MTase-Glo SAH luminescence; measured here: GAMT inhibition; at 40 µM; stronger effect = lower value. The procedure, abridged: as §1
The target in experiment [3] is Histamine N-methyltransferase (Homo sapiens) (UniProt P50135). As to conditions: purified enzyme, MTase-Glo SAH luminescence; measured here: HNMT inhibition; at 40 µM; stronger effect = lower value. The essentials: as §1
Experiment [4] has as its target Nicotinamide N-methyltransferase (Homo sapiens) (UniProt P40261). As to conditions: purified enzyme, MTase-Glo SAH luminescence; measured here: NNMT inhibition; at 40 µM; stronger effect = lower value. The procedure, abridged:
as §1

Experiment [5] concerns the target Phenylethanolamine N-methyltransferase (Homo sapiens) (UniProt P11086). The note with it: purified enzyme, MTase-Glo SAH luminescence; measured here: PNMT inhibition; at 40 µM; stronger effect = lower value. The essentials: as §1
% is set by controls: 0 for no effect and ±100 for the full control effect.

Turning to `O=C(Nc1cccc(F)c1)[C@@H]1C[C@@H](c2cccc(C(F)(F)F)c2)N(CC2CCOCC2)C1`, the activity change, negative = inhibition was -1.64% in experiment [1]; -6.7% in experiment [2]; 0.919% in experiment [3]; -11.1% in experiment [4]; 2.61% in experiment [5].

Regarding `CC(=O)N1CCn2c(nnc2C2CCCN2Cc2ccc(F)cc2F)C1` (configuration not stated), the activity change, negative = inhibition in experiment [1] was 0.487%; in experiment [2], 5.46%; in experiment [3] it was 2.21%; in experiment [4], -2.98%; in experiment [5], 15.9%.

In the case of `Cc1nn(C)c(C)c1S(=O)(=O)N1CCC2(CCC(=O)N(Cc3ccccc3)CC2)CC1`, the activity change, negative = inhibition is -5.76% in experiment [1]; -2.92% in experiment [2]; -0.623% in experiment [3]; -4.83% in experiment [4]; -1.67% in experiment [5].

As to `COc1ccc(CN2C(=O)c3cc(C(C)(C)C)nn3CC2(C)C(=O)NC2CCCCC2)cc1` (configuration not stated), the activity change, negative = inhibition in experiment [1] was -9.82%; in experiment [2], -1.93%; in experiment [3] it was -4.77%; in experiment [4], -11.4%; in experiment [5] it was -4.17%.

`COCc1cc(CNC(=O)CC(c2ccccc2)c2ccccc2Cl)[nH]n1` (configuration not stated): the activity change, negative = inhibition is -0.385% in experiment [1]; -6.56% in experiment [2]; -0.165% in experiment [3]; -1.32% in experiment [4]; -0.437% in experiment [5].

As for `CCn1ncnc1C(C)NC1CCC2(CCNCC2)CC1` (configuration not stated), the activity change, negative = inhibition in experiment [1] was -5.51%; in experiment [2], -5.37%; in experiment [3], -3.9%; in experiment [4], -9.01%; in experiment [5] it was -4.52%.

For `Cc1cn2nc(C(=O)NC3CCCCCC3)cc2c(N2CCSCC2)n1`, the activity change, negative = inhibition in experiment [1] was -4.98%; in experiment [2] it was -2.39%; in experiment [3], -7.67%; in experiment [4] it was -10.5%; in experiment [5], -14.7%.

Take `COc1cccc(Cn2nc3n(C)c(=O)c4ccc(C(=O)NC5CCCC5)cc4n3c2=O)c1`: the activity change, negative = inhibition in experiment [1] is -6.04%; in experiment [2] it was -8.37%; in experiment [3], 2.44%; in experiment [4] it was -11.5%; in experiment [5] it was -4.7%.

For the compound `O=S(=O)(NCCC1=CCCCC1)c1cccc(-c2nc(-c3ccccc3)no2)c1`, the activity change, negative = inhibition in experiment [1] was -5.95%; in experiment [2], -0.082%; in experiment [3], -9.71%; in experiment [4], -12.1%; in experiment [5], -8.98%.

Consider `O=C1NCCCCCN(C(=O)C2CCCCC2)[C@H]2CCCC[C@@H]12`, for which the activity change, negative = inhibition in experiment [1] was 0.943%; in experiment [2] it was 5.77%; in experiment [3], 2.58%; in experiment [4] it was -1.26%; in experiment [5], 13.3%.

Turning to `CC1CCC(NC(=O)C2(C)Cn3c(cc4sccc43)C(=O)N2Cc2cccc(Cl)c2)CC1` (configuration not stated), the activity change, negative = inhibition is 1.1% in experiment [1]; 0% in experiment [2]; -0.097% in experiment [3]; -3.16% in experiment [4]; -2.29% in experiment [5].

On to `O=C1NCCOCCN(C(=O)Cc2cccc(F)c2)[C@H]2CCC[C@@H]12`, for which the activity change, negative = inhibition in experiment [1] is -0.636%; in experiment [2] it was -3.1%; in experiment [3], 2.81%; in experiment [4], -4.44%; in experiment [5], 9.66%.

`C[C@]12C=CC(=O)C=C1CC[C@@H]1C2=CC[C@]2(C)[C@@H](C(=O)CN3CCN(c4cc(N5CCCC5)nc(N5CCCC5)n4)CC3)CC[C@@H]12`: the activity change, negative = inhibition in experiment [1] was -14.7%; in experiment [2], 10%; in experiment [3], -0.288%; in experiment [4] it was -6.43%; in experiment [5] it was 2.6%.

`CCCCNc1ccc(-c2ccc(CN3CCOCC3)cn2)c(NC2CCC(O)CC2)c1` (configuration not stated): the activity change, negative = inhibition in experiment [1] is 2.73%; in experiment [2], 5.11%; in experiment [3], -4.22%; in experiment [4], -10.8%; in experiment [5], 1.73%.

As for `Cc1cnc(-c2ccccc2)n1C1CCCN(S(=O)(=O)c2ccccc2)C1` (configuration not stated), the activity change, negative = inhibition is -28.8% in experiment [1]; -2.02% in experiment [2]; -9.15% in experiment [3]; -10.8% in experiment [4]; -4.54% in experiment [5].

In the case of `COC1C(=O)CCC2(CO2)C1(O)C1(C)OC1CC=C(C)C` (configuration not stated), the activity change, negative = inhibition is -11.3% in experiment [1]; -4.95% in experiment [2]; -12.4% in experiment [3]; -14.7% in experiment [4]; -10.7% in experiment [5].

Regarding `COc1ccc2cc3n(c2c1)CC(C)(C(=O)NCC1CCCO1)N(Cc1ccc(C)cc1)C3=O` (configuration not stated), the activity change, negative = inhibition in experiment [1] is 1.77%; in experiment [2] it was 6.1%; in experiment [3], -1.69%; in experiment [4], 7.6%; in experiment [5] it was -0.883%.

As for `C/C=C/C1OC2=C(C(=O)OC2(C)O)C(O)C1O` (configuration not stated), the activity change, negative = inhibition was 0% in experiment [1]; -0.89% in experiment [2]; 8.56% in experiment [3]; -10% in experiment [4]; -0.794% in experiment [5].

`COc1ccc(-c2nnc3n(CCCOC(C)C)c(=O)c4ccccc4n23)c(O)c1`: the activity change, negative = inhibition in experiment [1] is -8.72%; in experiment [2], 4.68%; in experiment [3], -1.3%; in experiment [4], 4.56%; in experiment [5], -4.69%.

`Cc1cnccc1CN(C)Cc1cc2n(n1)CCNC2`: the activity change, negative = inhibition in experiment [1] is -1.94%; in experiment [2], -0.239%; in experiment [3], -1.48%; in experiment [4], -2.02%; in experiment [5] it was 2.37%.

For the compound `CCCCN1C(=O)c2cc(C(=O)Nc3cccc(Cl)c3C)nn2CC1(C)C(=O)NC1CCCC1` (configuration not stated), the activity change, negative = inhibition in experiment [1] was 2.19%; in experiment [2] it was 4.24%; in experiment [3], -4.16%; in experiment [4], -2.74%; in experiment [5], 0.076%.

As for `c1ccc2c(Oc3nc(Nc4ccc(N5CCOCC5)cc4)c4ncn(C5CCCCC5)c4n3)cccc2c1`, the activity change, negative = inhibition in experiment [1] is -2.8%; in experiment [2], -18%; in experiment [3] it was -66.5%; in experiment [4], -59.5%; in experiment [5], -8.02%.

For the compound `CC(C)NC(=O)c1ccc2c(=O)n(C(C)C)c3nn(Cc4ccccc4F)c(=O)n3c2c1`, the activity change, negative = inhibition in experiment [1] was 0.869%; in experiment [2] it was 0.765%; in experiment [3] it was 7.34%; in experiment [4], -0.184%; in experiment [5], 3.59%.

For `C=CCNC(=O)N[C@H]1C[C@@H](C(=O)N[C@@H](CCS(C)(=O)=O)C(N)=O)N(C(=O)CSC)C1`, the activity change, negative = inhibition was -4.24% in experiment [1]; -9.63% in experiment [2]; -3.92% in experiment [3]; -13.8% in experiment [4]; -8.94% in experiment [5].

Regarding `CNC(=O)c1ccc2c(c1)CCO[C@H]2CCN1CCN(c2ccc(C(N)=O)cc2)CC1`, the activity change, negative = inhibition is -5.52% in experiment [1]; -9.48% in experiment [2]; 3.32% in experiment [3]; -25.4% in experiment [4]; -1.16% in experiment [5].

As for `COCCN1C[C@@H]2[C@H](c3ccccc31)[C@@H](CO)[C@@H](c1ccccc1)N2C(=O)COC(C)=O`, the activity change, negative = inhibition in experiment [1] is -16.7%; in experiment [2], -12.8%; in experiment [3] it was -27.9%; in experiment [4], -17.2%; in experiment [5], -13.2%.

Regarding `CC1(C)[C@@H](O[C@H]2O[C@H](C(=O)O)[C@@H](O)[C@H](O)[C@H]2O[C@@H]2O[C@H](C(=O)O)[C@@H](O)[C@H](O)[C@H]2O)CC[C@]2(C)[C@H]3C(=O)C=C4[C@@H]5C[C@@](C)(C(=O)O)CC[C@]5(C)CC[C@@]4(C)[C@]3(C)CC[C@@H]12`, the activity change, negative = inhibition in experiment [1] was -5.99%; in experiment [3], 2.98%.

With `Cc1cccc(NC(=O)CSc2nnc3n(C)c(=O)c4ccc(C(=O)NC5CCCC5)cc4n23)c1`, the activity change, negative = inhibition in experiment [1] was -5.2%; in experiment [2], -0.71%; in experiment [3], -2.66%; in experiment [4], -2.89%; in experiment [5] it was 0.69%.

For `CN1CC2(CCN(C(=O)CCc3nc(-c4ccco4)no3)C2)OC1=O` (configuration not stated), the activity change, negative = inhibition in experiment [1] was -5.77%; in experiment [2] it was -10.1%; in experiment [3], -2.71%; in experiment [4] it was -17.8%; in experiment [5], -11.6%.

Turning to `CC(C)Cn1c(=O)c2ccc(C(=O)NC(C)C)cc2n2c(=O)n(CC(=O)Nc3ccccc3F)nc12`, the activity change, negative = inhibition is 0.324% in experiment [1]; 2.13% in experiment [2]; 7.45% in experiment [3]; -5.27% in experiment [4]; 0.436% in experiment [5].
